# Experimental data reported in PubChem BioAssay AID686979 (National Center for Advancing Translational Sciences (NCATS), 2013).
# Hit rate of the full screen: of about 420,000 compounds, about 50,000 (12%) were called active. The inconclusive results got no clear call from the source; some entries with a clear call stand among them for comparison. Calls follow the shape of the dose curve; as a rule, active = well fitted inhibition curve with a large enough effect; inconclusive = small, poorly fitted or top-dose-only effect; inactive = flat fitted curve, though single readings scatter. Potencies of inconclusive entries are left out as doubtful fits.
# Assay: qHTS for Inhibitors of human tyrosyl-DNA phosphodiesterase 1 (TDP1): qHTS in cells in presence of CPT; also: nearly all actives have a fitted effect of over 55% in size
# Conditions: chicken DT40 Tdp1-/-;hTDP1 cells + 20 nM CPT, ATP luminescence, 48 h; activity change, negative = growth inhibition: at 46.2 µM (top of the series) unless noted
# How it was run: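 Chicken DT40 Tdp1-/- cells complemented with human TDP1, 400 cells/well, exposed to compounds plus 20 nM camptothecin for at least 48 h at 37 C; viability read as ATP content by CellTiter-Glo luminescence.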
# % is scaled to controls: 0 for no effect and ±100 for the full control effect; potency is read from the fitted curve at half-maximal effect; tags tell the direction and shape of the fitted curve.
Compound,Potency,"activity change, negative = growth inhibition"
COc1cc(/C=N/NC(=O)c2cc(-c3ccccc3Cl)nc3ccccc23)cc(OC)c1O,"inconclusive [inhibitor, single point]",
COC(=O)c1sc(NC(=O)CSc2nc3nc(C)cc(C)n3n2)c(C(=O)OC)c1C,"inconclusive [inhibitor, single point]",
CCC1CCCCN1C(=O)Nc1ccc(F)cc1 (centres undefined),,inactive: -0.929%
CCOC(=O)C1CCCN(C(=O)CN2C(=O)C(CC)Oc3ccc(C)cc32)C1 (centres undefined),"inconclusive [inhibitor, single point]",
O=C(c1cc(-c2ccncc2)nc2ccc(Br)cc12)N1CCN(Cc2ccc3c(c2)OCO3)CC1,"inconclusive [inhibitor, single point]",
COc1cccc2oc3ccc(C#CC4(N)CCCCC4)cc3c(=O)c12,active: 7.31 µM,
Cn1c(=O)n(C)c2cc(NS(=O)(=O)c3ccc4c(c3)CCCC4)ccc21,active: 17.8 µM,
C#CCOCCOCCOCCNc1nc(N2CCN(C(=O)CCCCCCCCCCNC(=O)[C@@H](CCC(=O)O)n3cc(CCCCCN)nn3)CC2)nc(N2CCN(C(=O)CCCCCCCCCCNC(=O)[C@H](CO)n3cc(CCCSC)nn3)CC2)n1,active: 13 µM,
CCN(Cc1nc2ccccc2c(=O)[nH]1)C(=O)c1cc2c(s1)CCCCC2,active: 14.6 µM,
O=C(COC(=O)c1cccs1)Nc1cccc(S(=O)(=O)N2CCOCC2)c1,,inactive: 0.847%
CCOC(=O)CC(NC(=O)c1ccco1)c1ccc(C)cc1 (centres undefined),,inactive: 1.66%
COc1cccc(-c2ncc3ccccc3c2COC(=O)c2cccs2)c1,"inconclusive [inhibitor, single point]",
COc1ccc(-n2ncc(C(=O)Nc3ccc(C)cc3Cl)c2C2CCN(C(=O)OC(C)(C)C)CC2)cc1,active: 16.4 µM,
O=C(NCC1CCCO1)c1cccc(Oc2ccc([N+](=O)[O-])cc2Cl)c1 (centres undefined),"inconclusive [inhibitor, single point]",
Cc1ccc(Sc2cnccc2C#N)cc1,,inactive: -23.9%
COc1ccccc1NC(=O)c1nnn(Cc2ccccc2)c1NC(=O)C(F)(F)F,"inconclusive [inhibitor, single point]",
CCN(CC(=O)Nc1ccc(S(=O)(=O)N2CCCCC2)cc1)Cc1ccccc1,active: 11.6 µM,
COc1ccc(S(=O)(=O)N2CCCCC2)cc1NC(=O)Cc1cccc(C(F)(F)F)c1,,inactive: 4.5%
OC(c1cccc(CN2CCCCC2)c1)c1ncc(-c2cccc3ccccc23)[nH]1 (centres undefined),"inconclusive [inhibitor, single point]",
O=C(NC1CCCCC1)c1ccc2snnc2c1,"inconclusive [inhibitor, single point]",
O=C(CN1C(=O)NC(c2ccccc2)(c2ccccc2)C1=O)Nc1cccnc1Cl,"inconclusive [inhibitor, single point]",
O=C(Nc1ccc2c(c1)CCC2)Nc1ccccc1F,"inconclusive [inhibitor, single point]",
COc1ccc(-c2csc3ncn(-c4cccc(C)c4)c(=O)c23)cc1OC,"inconclusive [inhibitor, single point]",

Compound,Potency,"activity change, negative = growth inhibition"
CO/N=C(\C(=O)N[C@@H]1C(=O)N2C(C(=O)O)=CCS[C@H]12)c1csc(N)n1,,inactive: -3.74%
N#Cc1c(NC(=O)C2CC(c3c(F)cccc3Cl)=NO2)sc2c1CCC2 (centres undefined),"inconclusive [inhibitor, full curve, poor fit]",
COc1ccc(N(Cc2ccccc2)C(=O)c2ccccc2[N+](=O)[O-])cc1,"inconclusive [inhibitor, partial curve]",
CC1CCCC(NC(=O)COC(=O)c2sc3ccccc3c2Cl)C1C (centres undefined),,inactive: -22.1%
O=C(NC1CCSc2ccccc21)c1ccccc1Br (centres undefined),,inactive: -25.5%
OC[C@@H]1CN(Cc2ccco2)C[C@H](n2cnc3c(NC4CC4)ncnc32)O1,,inactive: 5.35%
O=C(Nc1ccccc1Cl)c1cc(C2CCCN(C(=O)c3ccc4c(c3)CCO4)C2)on1 (centres undefined),active: 13 µM,
CCC1(c2ccc(F)cc2)NC(=O)N(CC(=O)NC2CCCC(C)C2C)C1=O (centres undefined),"inconclusive [inhibitor, partial curve]",
COc1ccc(-c2oc3c(c2C#CC(C)(C)O)C(OCCO)CC3)cc1 (centres undefined),"inconclusive [inhibitor, single point]",
CCOc1ccc(-c2c(C(=O)N/N=C/c3ccc(O)cc3)nnn2-c2nonc2N)cc1,,inactive: 4.65%
CCOc1ccc(NC(=O)CSc2nnc(CC)c(CC)n2)cc1,"inconclusive [inhibitor, single point]",
CCN(CC)CCNC(=O)C1CCCN(c2nnc(C)c3c(C)n(-c4ccc(Cl)cc4)nc23)C1 (centres undefined),"inconclusive [inhibitor, single point]",
COc1ccccc1CNC(=O)c1ccc(NC(=O)N2CC(C)Sc3ccccc32)cc1 (centres undefined),"inconclusive [inhibitor, single point]",
COc1ccc(N(C(=O)c2cnccn2)C(C(=O)NC2CCCCC2)c2ccccc2)cc1 (centres undefined),,inactive: -8.2%
COc1ccc(Cl)cc1N1C(=O)CC(N2CCc3ccccc32)C1=O (centres undefined),,inactive: 2.37%
CC(C)c1csc(CN2CCC(CO)(Cc3cccc(F)c3)CC2)n1,"inconclusive [inhibitor, partial curve]",
CCc1cc(-c2cnnn2Cc2ccccc2)ccc1-c1cn(CC(C)C)nn1,"inconclusive [inhibitor, full curve, poor fit]",
O=C(Nc1ccc(S(=O)(=O)N2CCCC2)cc1)C1CCN(S(=O)(=O)c2ccc(F)cc2)CC1,"inconclusive [inhibitor, partial curve]",
Cc1cccc(C)c1NC(=O)C1CCCN(S(=O)(=O)c2c(C)noc2/C=C/N(C)C)C1 (centres undefined),active: 16.4 µM,
Cc1ccc(Cn2nnc3c(=O)[nH]c(C4CCCN(C(=O)Nc5ccc(F)cc5)C4)nc32)cc1 (centres undefined),"inconclusive [inhibitor, single point]",
CCn1c(SCCOc2ccc(OC)cc2)nnc1C(CO)NC(=O)c1ccc(OC)cc1 (centres undefined),"inconclusive [inhibitor, single point]",
CC(=O)Nc1sc(C)c(C)c1C(=O)OCC(=O)Nc1cccc(C)c1,active: 16.4 µM,
Cc1ccc2c(c1)-c1c(cnn1CC(=O)Nc1ccccc1N1CCN(C)CC1)CO2,"inconclusive [inhibitor, single point]",

Compound,Potency,"activity change, negative = growth inhibition"
COc1ccc(NC(=O)c2sc(SCc3ccccc3)nc2N)cc1,"inconclusive [inhibitor, single point]",
CCOc1ncccc1C(=O)OCC(=O)c1cccs1,,inactive: -26.1%
COc1ccc(S(=O)(=O)N2CCOC2CNC(=O)C(=O)NCc2ccco2)cc1OC (centres undefined),,inactive: -6.82%
CC(C)(C)NC(=O)CSc1nnc(NC(=O)CCc2ccccc2)s1,"inconclusive [inhibitor, single point]",
N#Cc1cc2cc3c(cc2nc1N1CCOCC1)OCO3,"inconclusive [inhibitor, single point]",
COc1ccc(S(=O)(=O)NCC(c2ccco2)S(=O)(=O)c2ccc(C)cc2)cc1C (centres undefined),"inconclusive [inhibitor, single point]",
O=C(N/N=C/c1ccncc1)c1ccc(COc2cccc3cccnc23)cc1,"inconclusive [inhibitor, single point]",
COc1ccccc1CN1CCN(C(c2ccccc2)c2ccccc2)CC1,"inconclusive [inhibitor, single point]",
Cc1ccc(S(=O)(=O)/C(C#N)=C/c2c(N3CC(C)OC(C)C3)nc3ccccn3c2=O)cc1 (centres undefined),,inactive: -12.4%
COc1ccccc1NS(=O)(=O)c1cc(NC(=O)c2ccc3ccccc3n2)ccc1Cl,"inconclusive [inhibitor, single point]",
O=C1OC(c2ccccc2)(c2ccc3cc(O)ccc3c2)c2ccccc21 (centres undefined),active: 20.6 µM,
Cc1nc(SCC(=O)NCC2CCCO2)c2cc(-c3ccccc3)sc2n1 (centres undefined),"inconclusive [inhibitor, single point]",
Cc1c(C(=O)Nc2ccc(Cl)cc2)c2ccccn2c1C(=O)c1ccc([N+](=O)[O-])cc1,,inactive: -8.46%
CCOc1ccc(-n2cnc3scc(-c4ccc(OC)c(OC)c4)c3c2=O)cc1,"inconclusive [inhibitor, single point]",
CC(=O)/C(C#N)=C1\NC(=O)C(Cc2ccccc2Cl)S1 (centres undefined),"inconclusive [inhibitor, partial curve]",
CC1=C/C(=N\OC(=O)/C=C/c2ccccc2)C(C)=CC1=O,active: 23.1 µM,
COc1cc([N+](=O)[O-])cc(/C=C2/SC(=S)N(Cc3ccccc3)C2=O)c1O,active: 16.4 µM,
CC(CCN1CCN=C1N(C)C)c1ccccc1 (centres undefined),,inactive: -1.58%
O=c1c2ccccc2nc(SCc2nnc(-c3ccccc3Br)o2)n1-c1ccccc1,"inconclusive [inhibitor, partial curve, poor fit]",
CC(=O)Nc1ccc(NC(=O)c2sc3nc4n(c(=O)c3c2C)CCCCC4)cc1,active: 11.6 µM,
O=C(CSc1ncccn1)N1CCN(C(c2ccccc2)c2ccccc2)CC1,"inconclusive [inhibitor, single point]",
CCc1cc(C(=O)N2CCCC(CNC(=O)c3ccc(-c4ccccc4)cc3)C2)no1 (centres undefined),"inconclusive [inhibitor, single point]",
Cc1cc(C(=O)COc2ccc(C#N)cc2)c(C)n1C1CC1,"inconclusive [inhibitor, single point]",
